# Measurements published in PubChem BioAssay AID686971 (National Center for Advancing Translational Sciences (NCATS), 2013).
# Among all 360,000 compounds or so, about 7,500 (2.1%) were called active. The shares of active, inactive and inconclusive entries below differ from those in the screen. Calls follow the shape of the dose curve; as a rule, active = well fitted cell-killing curve with a large enough effect; inconclusive = small, poorly fitted or top-dose-only effect, or effect the other way, or another doubt; inactive = no such curve, though single readings can be large or run the other way. No potency is given beside an inconclusive call; the fits are too rough.
# Assay: qHTS for induction of synthetic lethality in tumor cells producing 2HG: qHTS for the HT-1080-IDH1KD cell line;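 as to activity, negative = toxicity: 0% = DMSO wells and -100% = cell-free medium wells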
# Details: HT-1080 IDH1 knockdown viability, ATP luminescence, 48 h; activity, negative = toxicity: at 46.1 µM (top of the series) unless noted
# Procedure, shortened: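 After a 2 h attachment period, IDH1KD HT-1080 cells took pin-transferred compound for 48 h at 37 °C; ATP-based luminescence after 10 min room-temperature reagent incubation reported viability.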
# Potency is read from the fitted curve at half-maximal effect; tags tell the direction and shape of the fitted curve.
SMILES,Potency,"activity, negative = toxicity"
O=C(CSc1ncc(C(F)(F)F)cc1Cl)N1CCN(S(=O)(=O)c2ccc3ccccc3c2)CC1,"inconclusive [cytotoxic, single point]",–
Cc1ccc(NC(=O)Nc2ccon2)cc1,inactive,–
O=C(C[n+]1ccccc1)NNc1ccccc1,active: 4.61 µM,–
CC1CC(C)CN(C(=O)c2cccc(S(=O)(=O)Nc3cc(C(F)(F)F)ccc3Cl)c2)C1 (centres undefined),"inconclusive [cytotoxic, single point]",–
COc1ccc(N(S(=O)(=O)c2ccccc2)S(=O)(=O)c2ccccc2)c(N)c1,"inconclusive [cytotoxic, single point]",–
COc1cc(C(=O)Oc2cccc(C=O)c2)cc(OC)c1OC,"inconclusive [cytotoxic, single point]",–
O=C(NCC(=O)N(c1ccc(F)cc1)C(C(=O)NC1CCCC1)c1ccncc1)c1ccco1 (centres undefined),inactive,–
Cc1c(NC(=O)N2CCCCCC2)c(=O)n(-c2ccccc2)n1C,inactive,–
CCOCCC(=O)Nc1ccc2c(c1)c(=O)n(C)n2C/C=C/c1ccccc1,active: 4.11 µM,–
CCS(=O)(=O)N1CCN(c2ncnc3sc(C)c(C)c23)CC1,inactive,–
COc1cccc(C2CC(c3cccc(OC)c3)n3nc(N)nc3N2)c1 (centres undefined),–,inconclusive: -6.73% [cytotoxic]
CC1CCN(CCc2nc3cc(NC(=O)COc4ccc([N+](=O)[O-])cc4)ccc3n2C)CC1,"inconclusive [cytotoxic, single point]",–
Cc1ccc(Cn2nnnc2CN2CCC(O)(c3cccnc3)CC2)cc1,inactive,–
Cc1ccc(-c2nn(-c3ccccc3)cc2/C=C/C(=O)Nc2cccc(S(N)(=O)=O)c2)cc1,"inconclusive [cytotoxic, single point]",–
O=C(CNC(=O)c1ccccc1)N/N=C/c1cccs1,"inconclusive [rising, partial curve]",–
COc1cc(NC(=O)NCc2ccco2)ccc1-c1ccc(NC(=O)NCc2ccco2)cc1OC,–,inconclusive: -13.9% [cytotoxic]
CCC(C)NC(=O)CSc1nc2ccccc2c(=O)n1Cc1ccc(OC)cc1 (centres undefined),"inconclusive [cytotoxic, single point]",–
Cn1nc(N)c2ncc(-c3ccc(Cl)cc3)nc21,–,inconclusive: -14.2% [cytotoxic]
Cc1ccc(CNC(=O)c2ccc(OCC(C)C)cc2)n1C,inactive,–
COc1ccc(CC(=O)Nc2c(C(=O)N3CCN(c4ncccn4)CC3)oc3ccccc23)cc1,"inconclusive [rising, single point]",–
COc1ccc(C(=O)SC2=NCCS2)cc1OC,inactive,–
Cn1nc(C(=O)Nc2nc3ccccc3[nH]2)c2ccccc2c1=O,inactive,–
OCC1(CCOc2ccccc2)CCN(Cc2nc3ccc(F)cc3[nH]2)CC1,"inconclusive [cytotoxic, partial curve]",–
Cc1ccccc1NC(=O)c1cccc(NC(=O)c2ccccc2C(=O)O)c1,inactive,–
Cc1nn2c(N3CCOCC3)cc(C(C)(C)C)nc2c1-c1ccccc1,inactive,–

SMILES,Potency,"activity, negative = toxicity"
CCOC(=O)c1oc2cccc(OCC(O)CNC(C)C)c2c1C (centres undefined),"inconclusive [cytotoxic, single point]",–
CC(C)Cc1nc2c(nnn2Cc2ccccc2F)c(=O)[nH]1,"inconclusive [cytotoxic, single point]",–
O=C(NC1CCCC1)C(C1CC1)n1c(-c2cc3ccccc3[nH]2)nc2ccccc21 (centres undefined),–,inconclusive: -30.8% [cytotoxic]
Cc1ccc(NC(=O)CNC(=O)c2cccs2)cc1S(=O)(=O)Nc1ccc(Cl)cc1,"inconclusive [cytotoxic, single point]",–
O=C1Nc2cc(C(=O)N3CCN(Cc4ccccc4)CC3)ccc2SC1N1CCOCC1 (centres undefined),inactive,–
O=C(COc1ccccc1CNCc1ccccc1)Nc1ccccc1,active: 11.2 µM,–
CC(=O)N1CCN(c2ccc(NC(=O)/C=C/c3ccccc3)cc2)CC1,"inconclusive [rising, partial curve]",–
CC(C)n1c(O)c(/C=C2\C=NN=C2c2ccccc2)sc1=S,active: 20.6 µM,–
CCN(CC)c1ccc2oc(=O)c(C)nc2c1,"inconclusive [cytotoxic, single point]",–
Fc1cccc(NC(=S)NNc2c3ccccc3nc3ccccc23)c1,active: 20.6 µM,–
Cc1cc(Oc2ccc(C#N)cc2)nc(NCc2ccccc2)n1,"inconclusive [cytotoxic, partial curve]",–
O=C(/C=C/Nc1ccc(Br)cc1F)c1ccccc1,"inconclusive [cytotoxic, single point]",–
N#C/C(=C\c1cn(Cc2cccc(F)c2)c2ccccc12)C(=O)NCc1ccco1,–,inconclusive: -24.1% [cytotoxic]
NNC(=O)c1sccc1OCc1ccc(Cl)cc1Cl,"inconclusive [cytotoxic, partial curve, poor fit]",–
NS(=O)(=O)c1ccc(CCNC(=O)C(=O)NCC2OCCN2S(=O)(=O)c2ccc(F)cc2)cc1 (centres undefined),"inconclusive [rising, single point]",–
CC(=O)OC1COC(OC(C)=O)CO1 (centres undefined),inactive,–
CCN(CC)c1nc(SCCOC(=O)Nc2ccccc2)nc(N(CC)CC)n1,"inconclusive [cytotoxic, single point]",–
Cc1ccc(/C=N/NC(=O)Cn2cncn2)cc1,inactive,–
CCCC1=Nc2cc(C(=O)NCCCN3CCOCC3)ccc2Sc2ccccc21,–,inconclusive: -32.9% [cytotoxic]
Cc1[nH]n(-c2ccccc2)c(=O)c1C=Nc1cccc2cccnc12,"inconclusive [cytotoxic, partial curve]",–
O=C(NCCc1c[nH]c2ccccc12)C(=O)Nc1ccccc1,"inconclusive [cytotoxic, partial curve]",–
O=C(O)CCc1ccc(-c2cccs2)o1,"inconclusive [cytotoxic, single point]",–
Cc1cc(C)c(C#N)c(Sc2nc(C)c([N+](=O)[O-])c(C)c2C#N)n1,active: 4.61 µM,–
O=C1[C@@H]2[C@@H]3C[C@@H]([C@H]4ON=C(c5ccc(OCc6ccccc6)cc5)[C@@H]34)[C@@H]2C(=O)N1c1ccc2c(c1)OCO2,inactive,–
Nc1ccc(OCc2ccco2)cc1,"inconclusive [cytotoxic, single point]",–

SMILES,Potency,"activity, negative = toxicity"
CCOC(=O)C1CCN(Cc2cc(Cl)c3ccccc3c2O)CC1,active: 25.9 µM,–
O=C(CSc1nnc(COc2cccc3cccnc23)o1)N1CCCC1,inactive,–
COc1ccc(NC(=O)c2cccc(S(=O)(=O)N3CCCCCC3)c2)cc1,"inconclusive [cytotoxic, partial curve]",–
Cc1ccc(C)c(Sc2ccc(NC(=O)CCN3C(=O)NC4(CCCC4)C3=O)cc2)c1,"inconclusive [cytotoxic, single point]",–
C=CCc1cccc(/C=N/NC(=O)CCC(=O)Nc2ccc(C)cc2)c1O,–,inconclusive: -32.7% [cytotoxic]
COc1cccc(CN=CC2=C(O)CC(C)(C)CC2=O)c1OC,"inconclusive [cytotoxic, full curve, poor fit]",–
CCCCN(CCCC)S(=O)(=O)c1ccc(NC(=O)c2cccs2)cc1,"inconclusive [cytotoxic, single point]",–
CC1CCc2sc3ncnc(N4CCN(C)CC4)c3c2C1 (centres undefined),inactive,–
CCOc1ccc(C(=O)COC(=O)Cc2n[nH]c(=O)c3ccccc23)cc1,active: 5.17 µM,–
O=C(NCC(F)(F)F)c1cc2c(c(-c3cccc(-c4ccccc4F)c3)n1)[C@@H](CCO)N(C(=O)CC1CC1)C2,active: 20.6 µM,–
Cn1c(=O)c2c(nc(OC3CCCCCC3)n2C)n(C)c1=O,inactive,–
CNc1nc(SCc2ccc(C)cc2)nc2c1CCCC2,"inconclusive [cytotoxic, single point]",–
Cc1nn(Cc2cccc(C(=O)N3N=C(C(F)F)CC3(O)C(F)F)c2)c(C)c1[N+](=O)[O-] (centres undefined),"inconclusive [cytotoxic, single point]",–
CCCN(CCC)C(=O)CC(c1ccccc1)c1ccc(C)cc1O (centres undefined),"inconclusive [cytotoxic, single point]",–
O=C(Nc1cccc(-c2cnc3ccccc3n2)c1)c1cccc(NC(=O)c2ccco2)c1,"inconclusive [cytotoxic, single point]",–
Cc1nc(C(F)(F)F)ccc1C(=O)N1CCCCCC1(C)C(=O)NCC(C)C (centres undefined),"inconclusive [rising, single point]",–
CC(C)(C)c1nc2cc(Cl)c([N+](=O)[O-])cc2o1,"inconclusive [cytotoxic, single point]",–
CC(C)NC(=O)C1(C)CCN1C(=O)c1cccn1C (centres undefined),inactive,–
CCCn1c(SCc2ccc(Cl)cc2)nc2c1c(=O)[nH]c(=O)n2C,"inconclusive [cytotoxic, single point]",–
CC(C)(C)NC(=O)C(=O)NNC(=O)COc1ccc(Br)cc1,inactive,–
COc1cc(C(CC(=O)N2CCN(c3ccccc3)CC2)c2c(OC)cc(OC)c3ccc(=O)oc23)cc(OC)c1OC (centres undefined),inactive,–
CCN(CC(=O)Nc1ccccc1OC)CC(=O)Nc1ccccc1-c1ccccc1,active: 7.31 µM,–
COc1ccc(CSc2nc(CSC)cc(N3CCOCC3)n2)cc1,"inconclusive [cytotoxic, single point]",–
CN(CC(=O)Nc1c(Cl)cccc1Cl)C(=O)C1CCN(C(=O)Nc2ccccc2)CC1,inactive,–
